# Results from PubChem BioAssay AID588342 (National Center for Advancing Translational Sciences (NCATS), 2011).
# The whole screen tested about 360,000 compounds, of which about 25,000 (6.9%) were called active. The shares of active, inactive and inconclusive entries below differ from those in the screen. The call rests on the fitted dose curve; in most records, active means well fitted inhibition curve with a large enough effect; inconclusive means small, poorly fitted or top-dose-only effect; inactive means flat fitted curve, though single readings scatter. Potencies of inconclusive entries are doubtful fits and often do not repeat.
# Target: Luciferin 4-monooxygenase (Photinus pyralis) (UniProt P08659)
# Experiment: qHTS profiling assay for firefly luciferase inhibitor/activator using purifed enzyme and Km concentrations of substrates (counterscreen for miR-21 project); further: nearly all actives have a fitted effect of over 55% in size
# Details: purified FLuc, luminescence inhibition; series mostly up to 57.5 µM
# How it was run: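 Purified P. pyralis luciferase, 10 nM final, with Km-level 10 uM D-luciferin and 10 uM ATP in 50 mM Tris acetate pH 7.5, 10 mM Mg acetate, 0.01% Tween-20, 0.05% BSA; 6-point qHTS titration about 60 µM downward; luminescence read.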
# Potency means the concentration at half of the fitted maximal effect; tags describe the fitted curve by direction and shape.
# UniProt P08659, sequence (P08659 whole entry, looked up): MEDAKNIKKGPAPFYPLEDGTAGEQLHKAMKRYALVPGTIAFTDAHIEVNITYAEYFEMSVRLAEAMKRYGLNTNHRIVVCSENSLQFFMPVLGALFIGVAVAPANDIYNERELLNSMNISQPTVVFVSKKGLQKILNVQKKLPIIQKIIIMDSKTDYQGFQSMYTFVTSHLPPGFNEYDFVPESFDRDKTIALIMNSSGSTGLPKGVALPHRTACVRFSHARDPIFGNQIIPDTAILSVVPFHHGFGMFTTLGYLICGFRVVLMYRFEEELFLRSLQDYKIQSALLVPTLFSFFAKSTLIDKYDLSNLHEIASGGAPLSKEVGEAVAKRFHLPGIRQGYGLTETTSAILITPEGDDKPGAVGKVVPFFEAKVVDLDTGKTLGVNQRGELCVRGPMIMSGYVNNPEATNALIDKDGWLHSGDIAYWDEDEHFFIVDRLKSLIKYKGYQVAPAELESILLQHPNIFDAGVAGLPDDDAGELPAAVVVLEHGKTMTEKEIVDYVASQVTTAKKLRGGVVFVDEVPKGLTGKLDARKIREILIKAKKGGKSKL
row,Structure (SMILES),Potency
1,CCn1c(C)c(C)c2cc(C(=O)NCCc3ccco3)ccc21,"inconclusive: 21.3 µM [inhibitor, single point]"
2,COC(=O)c1[nH]c2ccc(Cl)cc2c1NC(=O)Oc1ccccc1,"inconclusive: 2.69 µM [inhibitor, partial curve, poor fit]"
3,O=C(COc1ccc(F)cc1Br)NCc1ccccn1,"inconclusive: 21.3 µM [inhibitor, partial curve, poor fit]"
4,O=C(COC(=O)CNC(=O)c1ccccc1F)Nc1nnc(-c2ccccc2)o1,"inconclusive: 37.9 µM [inhibitor, partial curve, poor fit]"
5,COc1ccc(N2CCN(C(=O)c3cccc(NC(=O)c4nsc5ccccc45)c3)CC2)cc1,active: 9.53 µM
6,CC(C)(C)C(=O)COC(=O)c1ccc(N)c([N+](=O)[O-])c1,"inconclusive: 26.9 µM [inhibitor, partial curve, poor fit]"
7,Cc1cc(N)n2ncc(-c3cccc(Br)c3)c2n1,active: 15.1 µM
8,O=C(Nc1ccc(CN2CCS(=O)(=O)CC2)cc1)c1ccccc1,inactive
9,Cc1ccc(OC(C)C(=O)N(C)Cc2ccccc2)c([N+](=O)[O-])n1 (stereo unspecified),inactive
10,COc1ccc2oc(=O)c(C(=O)NCc3ccccn3)cc2c1,inactive
11,COc1ccc([C@]23Cc4ccccc4C(O2)C2=C(O3)C(=O)c3ccccc3C2=O)cc1,"inconclusive: 3.09 µM [inhibitor, partial curve]"
12,CCCOC(=O)c1ccc(NC(=O)c2ccccc2OC)cc1,"inconclusive: 26.9 µM [inhibitor, single point]"
13,COc1ccc(OCC(=O)c2c[nH]c3ccccc23)cc1,active: 3.79 µM
14,O=C(CC1Sc2ccccc2NC1=O)c1ccc(Br)cc1 (stereo unspecified),"inconclusive: 7.57 µM [inhibitor, partial curve]"
15,Cc1sc2nc(-c3ccc(Br)cc3)oc(=O)c2c1C,active: 2.69 µM
16,O=C(COc1ccc(/C=N/NC(=O)c2ccccc2O)cc1)Nc1ccccc1,"inconclusive: 7.57 µM [inhibitor, partial curve]"
17,OCc1cn(-c2ccccc2)nc1-c1ccc(Br)cc1,active: 16.9 µM
18,CCCCC(=O)Nc1nc2ccc3nc(C)sc3c2s1,"inconclusive: 13.5 µM [inhibitor, partial curve, poor fit]"
19,COc1ccc(/C=C/c2cc[n+](C(=O)Cc3ccccc3)cc2)cc1,inactive
20,N/C(=N\OC(=O)COc1cc(Cl)c(Cl)cc1Cl)c1ccncc1,active: 13.5 µM
21,CCOC(=O)C(=O)Nc1ccc(OCc2ccccc2)cc1,"inconclusive: 16.9 µM [inhibitor, partial curve]"
22,N#C/C(=C/c1cn(-c2ccccc2)nc1-c1cccc(OCc2ccc(F)cc2)c1)C(=O)NCCCn1ccnc1,"inconclusive: 10.7 µM [inhibitor, partial curve, poor fit]"
23,Cc1nc(SCc2c(F)cccc2Cl)c2c(=O)n(C)c(=O)n(C)c2n1,"inconclusive: 13.5 µM [inhibitor, partial curve, poor fit]"
24,Cc1cc2c(cc3c(SCc4nc(-c5ccccc5)oc4C)nnc(C)n32)o1,inactive
25,CCOC(=S)N/C(=N\S(=O)(=O)c1ccc(C)cc1)c1ccccc1,inactive
26,COC(=O)c1ccc(Oc2nc(N(C)C)nc(N3CCOCC3)n2)cc1,inactive

row,Structure (SMILES),Potency
1,O=C(CSc1nc2ccccc2s1)Nc1ccc2c(c1)OCO2,"inconclusive: 21.3 µM [inhibitor, single point]"
2,CCOc1ccc(-c2nc(CSCC(=O)NCC3CCCO3)c(C)o2)cc1 (stereo unspecified),active: 16.9 µM
3,Cc1cc(C)c2nc(N3CCC(C(=O)N4CCCC4)CC3)sc2c1,"inconclusive: 30.1 µM [inhibitor, single point]"
4,C/C(=N/NC(=O)C(=O)N/N=C(/C)c1ccccc1)c1ccccc1,"inconclusive: 37.9 µM [inhibitor, partial curve, poor fit]"
5,CSc1ccc(-c2nc(CSCC(=O)N3CCOCC3)c(C)o2)cc1,"inconclusive: 23.9 µM [inhibitor, single point]"
6,CN(C)S(=O)(=O)Oc1ccc(C(=O)Nc2ccc([N+](=O)[O-])cc2)cc1,inactive
7,O=C(C1=C(O)C(=O)N(c2nccs2)C1c1ccccc1)c1cc2ccccc2o1 (stereo unspecified),"inconclusive: 37.9 µM [inhibitor, single point]"
8,c1ccc(Nc2nc(-c3ccncc3)cs2)cc1,"inconclusive: 30.1 µM [inhibitor, single point]"
9,CC(C)(C)C(=O)NC(=S)NCCc1ccccc1,active: 16.9 µM
10,Cc1cc(NC(=O)c2cc3cccc([N+](=O)[O-])c3[nH]2)ccc1F,active: 5.36 µM
11,N#Cc1cnc(NCc2ccc(Cl)cc2Cl)nc1,inactive
12,Cc1cccnc1NC(=O)Nc1cccc(Cl)c1,"inconclusive: 4.26 µM [inhibitor, partial curve, poor fit]"
13,COc1ccc(N2C(=O)CC(Sc3n[nH]c(-c4cccc(C)c4)n3)C2=O)cc1 (stereo unspecified),"inconclusive: 26.9 µM [inhibitor, single point]"
14,COC(=O)c1sc(-c2ccc(Cl)cc2)cc1NC(=O)c1ccccc1C(=O)O,active: 21.3 µM
15,CCc1ccccc1NS(=O)(=O)c1ccc(NC(=O)N2CCCC2)cc1,inactive
16,Cc1cc(C)nc(NN2C(=O)/C(=C/c3ccc(O)cc3)SC2=S)n1,"inconclusive: 15.1 µM [inhibitor, partial curve]"
17,COc1cc(NC(=O)c2cc3ccccn3n2)cc(OC)c1OC,"inconclusive: 19 µM [inhibitor, partial curve, poor fit]"
18,Fc1cc(F)c(NC(=S)N2CCOCC2)c(F)c1,inactive
19,O=C(CN1C(=O)COc2ccc(S(=O)(=O)N3CCCCC3)cc21)NCc1ccc(Cl)cc1,inactive
20,Cc1ccc(Cn2ccc(NC(=O)c3cc(C(C)C)on3)n2)cc1,"inconclusive: 19 µM [inhibitor, partial curve]"
21,COc1cccc(/C=N/NC(=S)NC2CC3CC2C2C=CCC32)c1O (stereo unspecified),active: 5.36 µM
22,c1cc2ccc3ccc(CN4CCOCC4)c4ccc(c1)c2c34,"inconclusive: 26.9 µM [inhibitor, single point]"
23,COC(=O)CSc1nnc(-c2ccc(S(=O)(=O)NCc3ccccc3Cl)cc2)o1,inactive
24,Fc1ccc(/C=N/Nc2ncnc3nc[nH]c23)cc1F,"inconclusive: 26.9 µM [inhibitor, single point]"
25,CSCCC(NS(=O)(=O)c1ccc2c(c1)oc(=O)n2C)C(=O)N1CCN(c2cccc(Cl)c2)CC1 (stereo unspecified),inactive
26,Nc1nc2c(s1)COc1ccccc1-2,"inconclusive: 37.9 µM [inhibitor, single point]"

row,Structure (SMILES),Potency
1,Cc1ccc(/C(O)=C/c2nc3cc(C)ccc3oc2=O)cc1,active: 12 µM
2,Cc1ccc(Nc2nnc(SCC(=O)Nc3ncc(S(=O)(=O)c4ccc([N+](=O)[O-])cc4)s3)s2)cc1,active: 2.39 µM
3,O=C(OCC(=O)c1ccccc1Cl)c1cnccn1,"inconclusive: 26.9 µM [inhibitor, single point]"
4,Cn1c(SCc2ccccc2F)nnc1-c1ccccn1,"inconclusive: 30.1 µM [inhibitor, single point]"
5,COc1ccc(-c2nc(NC(=O)CSc3nnc4ccccn34)ns2)cc1,active: 12 µM
6,Fc1cccc(Cl)c1/C=N/Nc1ccccn1,inactive
7,C/C(=N\NC(=O)c1c(Br)c(C)nn1C)c1cccc(NC(=O)C2CCC2)c1,active: 19 µM
8,N#Cc1ccc(-c2csc(NC(=O)/C=C/c3cccs3)n2)cc1,"inconclusive: 2.39 µM [inhibitor, partial curve, poor fit]"
9,CCc1ccccc1NC(=O)CCc1c(C)nn(-c2ccc(N3CCOCC3)nn2)c1C,inactive
10,CCC(=O)NC(=S)Nc1ccc(N2CCOCC2)cc1,"inconclusive: 37.9 µM [inhibitor, partial curve, poor fit]"
11,CSc1nnc2c3ccccc3n(Cc3ccccc3)c2n1,inactive
12,CCC(=O)NC(=S)Nc1ccc(-c2nc3ccccc3s2)cc1,active: 0.757 µM
13,CCOc1ccc(C(=O)O/N=C(\N)c2ccccn2)cc1,active: 0.0849 µM
14,CSC1CCCCC1(O)CSc1nc2ccccc2o1 (stereo unspecified),"inconclusive: 21.3 µM [inhibitor, partial curve, poor fit]"
15,COc1ccc(NC(=O)c2cc(C(C)C)on2)c(OC)c1,"inconclusive: 23.9 µM [inhibitor, single point]"
16,Cc1cccc(-n2ncc3c(N4CCN(c5ccccc5)CC4)ncnc32)c1,inactive
17,CCN(CC)c1ccc(NC(=O)Cn2nc(C)n3cccc3c2=O)c(C)c1,"inconclusive: 9.53 µM [inhibitor, partial curve]"
18,CCOc1ccc(/C=C/C(=O)NCc2ccccc2)cc1,active: 15.1 µM
19,CCN(CC)CC(=O)Nc1scc2c1c(=O)oc1ccccc12,"inconclusive: 2.39 µM [inhibitor, full curve]"
20,O=C(NCc1ccccc1)c1ccc(-c2ccccc2C(F)(F)F)o1,"inconclusive: 37.9 µM [inhibitor, partial curve, poor fit]"
21,CN(C)C(=O)c1cn(-c2ccccc2)nc1-c1cccs1,"inconclusive: 23.9 µM [inhibitor, partial curve]"
22,COc1ccnc(N2CCN(c3ccc(Cl)cc3)CC2)c1C#N,"inconclusive: 26.9 µM [inhibitor, partial curve, poor fit]"
23,Cn1nc(C(=O)Nc2ccc3c(c2)OCCO3)cc1C(=O)O,active: 9.53 µM
24,O=[N+]([O-])c1ccc(Cl)c(S(=O)(=O)Nc2cccc(-c3ccc(N4CCCC4)nn3)c2)c1,active: 15.1 µM
